# PubChem BioAssay AID686978 (National Center for Advancing Translational Sciences (NCATS), 2013)
# Hit rate of the full screen: of about 420,000 compounds, about 64,000 (15%) were called active. This list was built around the results that the source calls inconclusive (neither active nor inactive); the mix of calls is not that of the screen. The call rests on the fitted dose curve; in most records, active means well fitted inhibition curve with a large enough effect; inconclusive means small, poorly fitted or top-dose-only effect; inactive means flat fitted curve, though single readings scatter. Potencies of inconclusive entries are left out as doubtful fits.
# Experiment: qHTS for Inhibitors of human tyrosyl-DNA phosphodiesterase 1 (TDP1): qHTS in cells in absence of CPT; further: nearly all actives have a fitted effect of over 55% in size
# Conditions: DT40 Tdp1-/- hTDP1 cells, no CPT, ATP luminescence, 48 h; activity change, negative = growth inhibition: at 46.2 µM (top of the series)
# How it was run: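 Chicken DT40 Tdp1-/- cells stably complemented with human TDP1 were seeded at 400 cells/well with DMSO in place of 20 nM camptothecin. After compound pinning, cells grew at least 48 hr at 37 °C; viability read by CellTiter-Glo luminescence.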
# On the % scale 0 is the no-effect control and ±100 the full control effect; potency means the concentration at half of the fitted maximal effect; tags describe the fitted curve by direction and shape.
Compound,Potency,"activity change, negative = growth inhibition"
CC(NC(=O)CN1C(=O)COc2ccc(S(=O)(=O)N3CCCCCC3)cc21)c1ccccc1 (stereo not given),"inconclusive [inhibitor, single point]",
CCn1c(CSc2ncccn2)nnc1SCC(=O)N1CCCCC1,,inactive: 4.56%
O=C(c1sccc1Cl)N1CCN(Cc2ccc3c(c2)OCO3)CC1,"inconclusive [inhibitor, single point]",
Fc1ccc2nc(Nc3nc4c(s3)CCCC4)sc2c1,"inconclusive [inhibitor, single point]",
COCCN1Cc2cc3cc(C)ccc3nc2SC1=Nc1ccc(OC)cc1,"inconclusive [inhibitor, single point]",
CCCc1c(C)nc(N2CCN(c3ccccc3OC)CC2)[nH]c1=O,"inconclusive [inhibitor, single point]",
O=C(C1CCCO1)N1CCN(S(=O)(=O)c2ccc(Br)cc2)CC1 (stereo not given),,inactive: 8.03%
CCOC(=O)CSc1nnc(C2CCCCC2)n1C,,inactive: -5.15%
O=C(CCn1c(=S)oc2ccccc21)Nc1cc([N+](=O)[O-])ccc1F,,inactive: -30.5%
CN(C)N=Nc1ccc(S(=O)(=O)NC(Cc2ccccc2)C(=O)O)cc1 (stereo not given),,inconclusive: -29.3% [inhibitor]
COc1ccc(Br)cc1CNC(=O)c1ccc2c(c1)N(C)CCS2,"inconclusive [inhibitor, single point]",
COc1ccc(-c2sc3cc(OC)c(OC)cc3c2-c2ccc(O)cc2)cc1,"inconclusive [inhibitor, single point]",
COc1ccc(/C=N/c2c(-c3ccc(OC)cc3)nc3n2CCS3)cc1,active: 16.4 µM,
C=CCNC(=O)c1onc(CSc2ccc(C(C)C)cc2)c1C(=O)O,,inactive: 3.81%
CCOc1ccccc1CNc1nnnn1C,,inactive: -18.8%
c1ccc(-c2nnc(OCc3cccnc3)c3ccccc23)cc1,"inconclusive [inhibitor, single point]",
Cn1c(CCN2CCN(c3ccccn3)CC2)nc2cc(NS(=O)(=O)c3ccc(F)cc3)ccc21,"inconclusive [inhibitor, single point]",
C/C(=N\NC(=S)Nc1cccc(C)c1)c1cccc(N)c1,active: 0.92 µM,
Cc1nc2ccn(Cc3cccs3)c(=O)c2cc1C(=O)NCc1ccc(Br)cc1,"inconclusive [inhibitor, single point]",
COc1ccc(CNC(=O)COC(=O)CC2CC3CCC2C3)cc1OC (stereo not given),"inconclusive [inhibitor, single point]",
COc1ccc(OC)c(NC(=O)CSC2=Nc3ccccc3C3=NC(CCC(=O)NCc4ccccc4)C(=O)N23)c1 (stereo not given),"inconclusive [inhibitor, single point]",
c1ccc(-n2ncc3c(NCc4ccco4)ncnc32)cc1,"inconclusive [inhibitor, single point]",
COc1ccc(S(=O)(=O)NC2CCCC2)cc1Br,,inactive: -20.5%
c1ccc(-c2cn3ccccc3n2)cc1,,inactive: -26.1%
COc1ccc(C2CC(=O)Oc3cc(OC)ccc32)cc1 (stereo not given),,inactive: -1.58%

Compound,Potency,"activity change, negative = growth inhibition"
CCNc1ccc(C(=O)OCC)cc1NC(=O)c1cccc(N(C)C)c1,active: 2.59 µM,
O=[N+]([O-])c1ccccc1/C=N/N1CCN(c2ccccn2)CC1,"inconclusive [inhibitor, single point]",
CCCC(=O)OCC(=O)Nc1ccc(N=Nc2ccccc2)cc1,"inconclusive [inhibitor, single point]",
COc1ccccc1CNC(=O)CCC(=O)N1CC(C)Sc2ccccc21 (stereo not given),"inconclusive [inhibitor, single point]",
CCOC(=O)c1c(NC(=O)Cc2ccccc2)sc2c1CC(C)(C)NC2(C)C,"inconclusive [inhibitor, single point]",
CCC(c1nnnn1-c1ccc2c(c1)OCCO2)N1CCN(c2ncccc2C(F)(F)F)CC1 (stereo not given),active: 18.4 µM,
CCc1cccc(C)c1NC(=S)N(Cc1cccnc1)Cc1ccco1,"inconclusive [inhibitor, partial curve, poor fit]",
COc1ccccc1CCNC(=O)c1ccc(Br)s1,"inconclusive [inhibitor, partial curve]",
N#Cc1ccc(-c2csc(NC3=NCCCCC3)n2)cc1,"inconclusive [inhibitor, single point]",
CN1CCN(c2ccc(NC(=O)CSc3nnnn3-c3ccccc3Cl)cc2)CC1,,inconclusive: -30.1% [inhibitor]
CCOC(=O)c1c(NC(=S)Nc2ccccc2)sc2c1CCN(CC)C2,,inactive: -25.7%
Cc1ccccc1NC(=O)COC(=O)c1c[nH]c(=O)[nH]c1=O,,inactive: -3.82%
COc1ccc2c(c1)NC(c1ccc(N(C)C)cc1)c1cccn1-2 (stereo not given),active: 14.6 µM,
CCOC(=O)C1=CCN(S(=O)(=O)c2ccc(Br)cc2)C1c1ccc(C)cc1 (stereo not given),active: 25.9 µM,
CCOC(=O)c1c(-c2ccccc2)csc1NC(=O)/C(C#N)=C\c1ccc(O)c(OC)c1,"inconclusive [inhibitor, single point]",
COc1ccc(C(C)(O)c2nc(-c3ccc(F)cc3OC)cs2)cc1 (stereo not given),active: 10.3 µM,
COc1ccc(Cc2nnc(NC(=O)c3cc(OC)c(OC)c(OC)c3)s2)cc1,"inconclusive [inhibitor, single point]",
O=C(Nc1ccc(-n2cnnn2)cc1)c1cc(S(=O)(=O)N2CCCC2)ccc1Cl,"inconclusive [inhibitor, partial curve, poor fit]",
CCOC(=O)CCCn1nc(C)n2c(cc3sccc32)c1=O,,inconclusive: -36.8% [inhibitor]
COC(=O)c1ccccc1-c1c2ccc(=N)cc-2oc2cc(N)ccc12,active: 0.58 µM,
O=c1c(S(=O)(=O)c2ccc(Cl)cc2)cn(Cc2cccc(F)c2)c2ccc(F)cc12,"inconclusive [inhibitor, single point]",
O=C(CCN1CCCCCC1)c1ccccc1,active: 3.66 µM,
COc1ccc(C(=O)c2c(-c3ccsc3)oc3ccc(-c4ccc(OC)cc4)cc23)cc1,,inconclusive: -34% [inhibitor]
CCOC(=O)COc1cccc2c(=O)n(CC(=O)NCc3ccc(F)cc3)ccc12,active: 0.517 µM,
C/C(N)=C(/C#N)C(=O)CSc1nc2ccccc2c(=O)n1Cc1ccc(C)cc1,"inconclusive [inhibitor, single point]",

Compound,Potency,"activity change, negative = growth inhibition"
COCC(C)NC(C(=O)Nc1ccc(Cl)c([N+](=O)[O-])c1)c1ccccc1 (stereo not given),,inactive: -27.3%
CCC(=O)Nc1ccc2nc(C3CC3)n(Cc3ccc(C(C)(C)C)cc3)c(=O)c2c1,active: 14.6 µM,
O=C(COC(=O)c1ccccc1)Nc1ncc([N+](=O)[O-])s1,,inconclusive: -30.8% [inhibitor]
CN1CCC(C(=O)N2CCCC(C(=O)c3ccc4c5c(cccc35)CC4)C2)CC1 (stereo not given),active: 18.4 µM,
Cc1cccc(-n2c(Cc3ccccc3)nnc2SCC(=O)N2CCOCC2)c1,,inactive: 1.22%
Cc1cc(C)c(NC(=O)CN2C(=O)NC(Cc3ccccc3)C2=O)c(C)c1 (stereo not given),"inconclusive [inhibitor, single point]",
Cc1ccc(-c2nc(CS(=O)CC(=O)NC(C)CCc3ccccc3)c(C)o2)cc1 (stereo not given),,inactive: -26.2%
O=C(/C=C/c1ccccc1Cl)Nc1cccc(S(=O)(=O)NC2=NCCCCC2)c1,"inconclusive [inhibitor, partial curve, poor fit]",
CCC(=O)Oc1cc(C(C)(C)C)cc2cc(-c3nc(-c4ccc(OC)cc4OC)no3)c(=O)oc12,active: 16.4 µM,
CC1CCc2sc(C(=O)NN=C3CCCC3)cc2C1 (stereo not given),,inactive: -29.3%
Cc1ccc(-c2cnc(NC(=O)c3cccc(Br)c3)s2)c(C)c1,"inconclusive [inhibitor, single point]",
O=S(=O)(NC1CCCCC1)c1ccc(F)c2ccccc12,,inactive: -15.1%
Cc1cccc(-n2cc(CN3CCN(Cc4nccn4C)CC3)c(-c3cccc(F)c3)n2)c1,"inconclusive [inhibitor, single point]",
Cc1ccc(NC(=O)CSC2=C(C#N)C(c3ccco3)C3=C(CCCC3=O)N2)cc1 (stereo not given),"inconclusive [inhibitor, partial curve, poor fit]",
COc1ccc(C(CNC(=O)c2ccc(OCc3c(C)noc3C)cc2)N2CCCC2)cc1 (stereo not given),,inactive: 17.5%
CCOc1ccc(Oc2c(/C=N/NC(=O)C3CC3)c(C)nn2-c2ccccc2)cc1,active: 14.6 µM,
O=C(c1ccc(N2CCOCC2)c([N+](=O)[O-])c1)N1CCN(S(=O)(=O)c2cccs2)CC1,active: 16.4 µM,
COc1ccc(C(=O)C2CCCN(C(=O)c3cccnc3OC)C2)cc1F (stereo not given),,inactive: -6.1%
Cc1cc(F)ccc1S(=O)(=O)Nc1ccccc1C(=O)NCc1ccccn1,,inactive: -9.22%
CCCCN1C(=O)C(=O)N(CC(=O)N2N=C3/C(=C/c4ccco4)CCCC3C2c2ccco2)C1=O (stereo not given),,inactive: -3.41%
Cc1ccc2sc(N(Cc3cccnc3)C(=O)Cc3ccccc3)nc2c1C,"inconclusive [inhibitor, single point]",
CC1CC(C)CN(S(=O)(=O)N2CCCC(C(=O)NCc3ccccc3Cl)C2)C1 (stereo not given),"inconclusive [inhibitor, single point]",
N#C/C(=C\c1c(N2CCOCC2)nc2ccccn2c1=O)C(=O)NC1CCS(=O)(=O)C1 (stereo not given),,inactive: -15.6%
C=CCn1c(=O)c(C(=O)Nc2ccc(C)cn2)c(O)c2ccccc21,active: 18.4 µM,
O=C(c1cccs1)c1cn(CCOc2ccc(Cl)cc2)c2ccccc12,active: 7.31 µM,
